Assay results from PubChem BioAssay AID686979 (National Center for Advancing Translational Sciences (NCATS), 2013).
Several values for one entry are separate records, joined by “and”; a condition that tells them apart may be missing. Equal values may be shown once. Hit rate of the full screen: of about 420,000 compounds, about 50,000 (12%) were called active. Inconclusive means that the source gave no clear call. Such entries were picked first, then a sample of the others. The call rests on the fitted dose curve; in most records, active means well fitted inhibition curve with a large enough effect; inconclusive means small, poorly fitted or top-dose-only effect; inactive means flat fitted curve, though single readings scatter. Where the call is inconclusive, the potency comes from a doubtful curve fit.

Assay: qHTS for Inhibitors of human tyrosyl-DNA phosphodiesterase 1 (TDP1): qHTS in cells in presence of CPT; further: nearly all actives have a fitted effect of over 55% in size
Conditions: chicken DT40 Tdp1-/-;hTDP1 cells + 20 nM CPT, ATP luminescence, 48 h; activity change, negative = growth inhibition: at 46.2 µM (top of the series) unless noted
Procedure, shortened: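 Chicken DT40 Tdp1-/- cells stably complemented with human TDP1 were seeded at 400 cells/well in medium containing 20 nM camptothecin, exposed to pin-transferred compounds, and grown at 37 °C for at least 48 hr. Viability was read as ATP luminescence.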
On the % scale 0 is the no-effect control and ±100 the full control effect; potency means the concentration at half of the fitted maximal effect; tags describe the fitted curve by direction and shape.

| Compound | Potency | activity change, negative = growth inhibition |
| --- | --- | --- |
| Cc1ccccc1C(=O)O[C@H]1[C@H](Cc2ccccc2)NS(=O)(=O)[C@H]2CC3C=C[C@]12O3 | inconclusive: 35.5 µM [inhibitor, single point] and inconclusive: 29.1 µM [inhibitor, single point] |  |
| Cc1cccc(N=C2NN=C(c3ccccc3F)CS2)c1C |  | inactive: -27.2% |
| O=C(Nc1cccc(Cl)c1)NC1CC2CCC1C2 (centres undefined) | inconclusive: 29.1 µM [inhibitor, single point] |  |
| OC(c1ccc(Cl)cc1)c1ncc(-c2ccccc2Cl)[nH]1 (centres undefined) | inconclusive: 18.4 µM [inhibitor, partial curve, poor fit] |  |
| COC(=O)c1ccc2c(=O)n(Cc3ccco3)c(SCC(=O)Nc3ccccc3Cl)nc2c1 |  | inconclusive: -30.2% [inhibitor] |
| CCCc1cc(-c2nc(-c3ccc(Cl)cc3)cs2)ccn1 | active: 18.4 µM |  |
| CN(CCc1ccccc1)C(=O)c1cccc(NC(=O)Cc2cccc(NC(=O)C3CCN(C(=O)C4CCCCC4)CC3)c2)c1 | inconclusive: 18.4 µM [inhibitor, single point] |  |
| CCOC(=O)c1cnc(SC)nc1Oc1cccc(NS(=O)(=O)c2ccc(Cl)cc2)c1 | inconclusive: 23.1 µM [inhibitor, single point] |  |
| CCOC1=C2CN(S(=O)(=O)c3ccc(C)cc3)CC[C@@H]2N(S(=O)(=O)c2ccc(C)cc2)[C@H](c2ccccc2)C1 | inconclusive: 20.6 µM [inhibitor, single point] |  |
| Nc1nc(CN2CCOCC2)cs1 | inconclusive: 29.1 µM [inhibitor, single point] |  |
| Cc1cccc(NS(=O)(=O)c2ccc3[nH]c(=O)ccc3c2)c1C | inconclusive: 16.4 µM [inhibitor, partial curve] |  |
| Cc1ccc(-n2nc(C)c3c2OC(N)=C(C#N)C3c2cccs2)cc1 (centres undefined) |  | inactive: -0.764% |
| COc1ccc(-c2nnc(-c3cccnc3)o2)cc1OC | active: 11.6 µM |  |
| CC(C)C(=O)NS(=O)(=O)c1ccc(NS(C)(=O)=O)cc1 |  | inactive: -2.89% |
| O=C(NC(=S)N1CC=CCC1)c1ccccc1 |  | inactive: 1.31% |
| O=C(NC1CCCCC1)C(c1cccs1)N(Cc1cccs1)C(=O)c1ccco1 (centres undefined) | active: 14.6 µM |  |
| COc1cc(NC(=O)Cn2c(=O)oc3cc(S(=O)(=O)N4CCCCCC4)ccc32)cc(OC)c1 | active: 14.6 µM |  |
| COc1ccc(C(=O)N/N=C/c2cccc3cccnc23)cc1 | active: 4.11 µM |  |
| CC(C)(C)c1ccc(C(=O)Nc2nonc2-c2nc3ccccc3[nH]2)cc1 | inconclusive: 16.4 µM [inhibitor, partial curve] |  |
